Experimental data taken from PMC4336329 (PLoS ONE, 2015).
In all, about 310,000 compounds went through this assay and about 14,000 (4.5%) showed an effect of 50% or more. The effect is printed as a negative number. Some of the results follow.

Biological target: human ether-à-go-go-related gene (hERG) potassium channel (human, UniProt Q12809)
Assay: primary screen, population patch clamp on CHO cells stably expressing hERG
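Further: peak tail current of the secondary pulse compared with the same well before compound.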

Sequence of human ether-à-go-go-related gene (hERG) potassium channel (Q12809 whole entry, looked up): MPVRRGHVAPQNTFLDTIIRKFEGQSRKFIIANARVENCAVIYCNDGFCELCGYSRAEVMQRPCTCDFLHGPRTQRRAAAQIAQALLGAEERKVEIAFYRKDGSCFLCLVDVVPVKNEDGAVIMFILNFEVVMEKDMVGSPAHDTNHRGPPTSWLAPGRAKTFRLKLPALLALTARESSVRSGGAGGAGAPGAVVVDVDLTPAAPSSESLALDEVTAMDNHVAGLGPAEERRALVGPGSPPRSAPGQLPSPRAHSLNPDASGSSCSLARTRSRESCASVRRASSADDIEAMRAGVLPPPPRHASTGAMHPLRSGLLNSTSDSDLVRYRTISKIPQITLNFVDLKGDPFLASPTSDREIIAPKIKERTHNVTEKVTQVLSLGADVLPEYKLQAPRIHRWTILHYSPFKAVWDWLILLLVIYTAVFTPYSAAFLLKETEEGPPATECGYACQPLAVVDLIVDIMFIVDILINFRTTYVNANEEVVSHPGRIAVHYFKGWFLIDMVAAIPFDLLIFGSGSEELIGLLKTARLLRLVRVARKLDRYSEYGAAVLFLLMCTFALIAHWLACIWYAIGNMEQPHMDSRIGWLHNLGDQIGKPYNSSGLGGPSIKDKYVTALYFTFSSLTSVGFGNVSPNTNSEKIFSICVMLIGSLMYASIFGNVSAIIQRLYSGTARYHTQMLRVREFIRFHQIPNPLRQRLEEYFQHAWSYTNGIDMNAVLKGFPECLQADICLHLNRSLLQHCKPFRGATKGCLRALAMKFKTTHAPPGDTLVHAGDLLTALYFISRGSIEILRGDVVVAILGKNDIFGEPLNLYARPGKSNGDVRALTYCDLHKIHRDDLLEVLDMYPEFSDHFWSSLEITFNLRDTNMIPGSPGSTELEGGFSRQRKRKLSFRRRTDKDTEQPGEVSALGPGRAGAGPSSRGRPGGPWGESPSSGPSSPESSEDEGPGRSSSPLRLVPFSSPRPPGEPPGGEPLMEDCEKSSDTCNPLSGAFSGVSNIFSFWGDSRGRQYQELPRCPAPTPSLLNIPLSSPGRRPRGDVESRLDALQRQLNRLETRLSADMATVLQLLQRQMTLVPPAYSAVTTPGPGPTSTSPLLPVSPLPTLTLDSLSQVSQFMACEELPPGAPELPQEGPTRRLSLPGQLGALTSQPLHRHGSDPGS

Compound	hERG current change (%, negative = inhibition) at 10uM [%]
COc1cc2cnc(-c3ccsc3)c(-c3ccc(F)cc3)c2cc1OC	17.3
NN=C(c1cccc([N+](=O)[O-])c1)c1cccc([N+](=O)[O-])c1	0.696
COCCNC(=O)NC(=O)COC(=O)Cc1ccc2c(c1)OCCO2	-12.1
CCOc1ccccc1Nc1cc(C)nc2nc(C)nn12	-11.6
Cc1ccccc1OCc1nc2ccccc2c(=O)n1/N=C/c1ccco1	6.66
COc1ccc(O[C@H]2C=C[C@@H](c3ccccc3)O[C@@H]2CO/N=C/C[C@@H]2C=C[C@H](OC(C)=O)[C@@H](COC(C)=O)O2)cc1	-9.17
COc1ccc(-c2cc(C(=O)NCCCN3CCOCC3)on2)cc1OC	6.56
Cc1ncc(S(=O)(=O)c2ccccc2)c(-c2ccccc2Cl)n1	-2.47
Cc1cccc(N2CC(C(=O)Nc3cccc(S(=O)(=O)N4CCCCC4)c3)CC2=O)c1C (centres unmarked)	-3.11
NS(=O)(=O)c1ccc(CNC(=O)c2cc(-c3ccccn3)nc3ccc(Cl)cc23)cc1	15.6
Clc1cccc(-c2nn3c(Cn4cnc5ccccc54)nnc3s2)c1	2.23
CC1(c2ccc([N+](=O)[O-])c(CS(=O)(=O)c3ccccc3)c2)OCCO1	-7.33
C=C(C)CSc1nnc([C@@H](NC(=O)OC(C)(C)C)C(C)CC)o1 (some centres unmarked)	-10.5
CCOC(=O)C1CCCN(CCC(=O)Nc2ccccc2C)C1.Cl (centres unmarked)	12.5
O=C(O)C1(c2ccccc2)CCC(Nc2ccccc2)C1 (centres unmarked)	17.2
Cc1ccccc1C(=O)c1c[nH]c(C(=O)NCC2CCCO2)c1 (centres unmarked)	5.25
O=C(Nc1ccc(Cl)cc1Cl)c1csc(-c2cccnc2)n1	-1.42
O=C(NC1CCCC1)c1cccc(NC(=O)c2ccco2)c1	-29.6
Cc1cccc(C(=O)Oc2ccccc2C(=O)N2CCOCC2)c1	-8.06
COc1ccc(C(=O)NC2CC(C)(C)Cc3c2cnn3-c2ccccc2)cc1OC (centres unmarked)	-39.7
COCCCNC(=O)Cn1ccc(N)nc1=O	11.4
Clc1ccccc1Cn1c(/C=C/c2ccco2)nc2ccccc21	13.5

Compound	hERG current change (%, negative = inhibition) at 10uM [%]
COC(=O)C(Cc1cnc(Cl)s1)(C(=O)OC)c1ccc([N+](=O)[O-])cc1	-36
O=S(=O)(NC1CCCCC1N1CCN(c2ccc(F)cc2)CC1)c1ccccc1 (centres unmarked)	-7.05
Cc1cc(C)cc(C(=O)NCC(=O)N2CCN(c3cccc(Cl)c3)CC2)c1	-21
Cc1c(NC(=O)COc2ncnc3ccccc23)c(=O)n(-c2ccccc2)n1C	8.23
CCCC(=O)Nc1ccc(C(=O)NNC(=O)c2ccco2)cc1	22.3
COc1cccc(-c2onc3ccc(C4(C)OCCO4)cc23)c1	17.5
COc1cc(C(=O)O)ccc1OC(C)=O	14.8
COc1cc(CCC(=O)OCC(=O)Nc2c(C)cccc2C(C)C)cc(OC)c1OC	23.4
CC(C)(C)c1ccc(C(=O)N/N=C2\C3CN4CCN(C3)CC2(c2ccccc2)C4)cc1	-14.8
COCCNC(=O)C(c1ccncc1)N(C(=O)c1sc(C)nc1C)c1cccc(C)c1 (centres unmarked)	18.7
O=C(CCN1C(=O)C2CC=CCC2C1=O)Nc1ccccc1Cl (centres unmarked)	6.92
CCOc1ccc(S(=O)(=O)N2CCOCC2)cc1NC(=O)C1=COCCO1	-4.66
CCOc1nc(NCCO)nc(Nc2cc(Cl)ccc2OC)n1	0.612
COc1ccc(-n2ncc3c(NCC(C)C)ncnc32)cc1	-0.691
Cc1ccc(-n2c3c(c(=O)[nH]c2=S)C(C(F)(F)F)(C(F)(F)F)NC(=O)N3)cc1	-3.85
Cc1cc(Cl)ccc1OCC(=O)NC(=S)Nc1ccccc1N1CCOCC1	12.4
CCOC(=O)c1sc(NC(=O)CN2CCN(c3ccccc3)CC2)nc1C	-5.78
C/C(N)=C(/C#N)C(=O)COC(=O)COc1ccc(Cl)cc1	6.79
Cc1ccc(/C=N/n2c(-c3ccc(Cl)cc3)n[nH]c2=S)o1	15.5
O=C(C1CCCN(S(=O)(=O)Cc2ccccc2)C1)N1CCc2ccccc21 (centres unmarked)	-33.1
Cc1ccccc1Nc1nc(N)nc(COC(=O)c2cccc(S(=O)(=O)N(C)c3ccccc3)c2)n1	-7.79
Cc1ccc(S(=O)(=O)c2nc(-c3ccccc3)oc2N2CCC(C(N)=O)CC2)cc1	-26.3

Compound	hERG current change (%, negative = inhibition) at 10uM [%]
Cc1ccc(S(=O)(=O)N2CCC(=O)N(CCOCc3ccc(C(F)(F)F)cc3)CC2)cc1	-41.6
Cc1ccc(NC(=O)COC(=O)Cn2c(C)csc2=O)c([N+](=O)[O-])c1	-4.5
CCN(CCn1cccn1)Cc1nc(-c2ccc(C(=O)OC)cc2)no1	-5.09
CCCCNC(=O)c1oc2ccc(S(=O)(=O)N3CCCC3)cc2c1C	-13.4
CCCN(CCC)CCCNC(=O)c1cc2c(=O)[nH]c3ccccc3c2s1	-4.19
O=C(CSc1nnnn1C1CC1)N1CCN(c2ccccc2F)CC1	-6.93
CCOC(=O)N1CCC(NC(=O)c2ccc(CS(=O)c3ccc(Cl)cc3)o2)CC1 (centres unmarked)	-11
CC(=O)Oc1ccc(/C=C2\C=C(c3ccc(C)cc3)OC2=O)cc1	12.3
COC(=O)c1cc(OC)c(OC)cc1N=CC1=C(O)CC(C)(C)CC1=O	3.25
Cc1cc(NC(=O)C(C)SCC(=O)OCc2ccc(Cl)cc2Cl)no1 (centres unmarked)	1.04
COc1ccccc1-c1nn(-c2ccccc2)cc1C(=O)NCC(c1ccco1)N1CCCC1 (centres unmarked)	-53
N#Cc1c(-c2ccc(F)cc2)cc(-c2ccccc2)nc1SCC(=O)NCC(=O)O	-0.355
CC12C(=O)N(n3cnnc3)C(=O)C1C1C=CC2C1 (centres unmarked)	-2.07
COc1cccc(CN(C)C(=O)CCN=C2NS(=O)(=O)c3ccccc32)c1OC	10.6
CC(=O)N1c2ccc(S(=O)(=O)N3CCC(C(=O)Nc4cccc(C)n4)CC3)cc2CC1C (centres unmarked)	15.8
N#C/C(=C\c1ccc(-c2nc3ccccc3s2)o1)C(N)=O	5.03
COc1ccc(/C=N/NC(=O)c2cccc(NC(=O)c3ccccc3Cl)c2)cc1	-28.4
C=C(C)CNC(=O)c1ccc(OC2CCN(C(=O)COC)CC2)cc1	19.2
CCCCOc1ccc(C(=O)N/N=C/c2ccc(OCCN3CCCCC3)c(OC)c2)cc1	-45.3
O=C1N(Cc2ccccc2)CCCC12CCCN(Cc1ccccc1)C2=O	-3.75
O=C(NCC1CCCO1)c1cc(-c2ccccc2)nc2ccccc12 (centres unmarked)	-4.4
Cl.NC(CO)C12CC3CC(CC(C3)C1)C2 (centres unmarked)	9.97

Compound	hERG current change (%, negative = inhibition) at 10uM [%]
O=C(O)c1ccc(CN2C(=O)CSC2=S)cc1	-6.78
Cc1cccc(N2CCN(C(=O)C3CC(=O)N(c4ccc5c(c4)OCCO5)C3)CC2C)c1 (centres unmarked)	-6.83
O=C(CSc1ccc2nnc(-c3ccccn3)n2n1)Nc1ccc(F)cc1F	-30.4
CC(=O)Nc1cc2nn(-c3ccccc3)nc2cc1C	17.2
O=C(Cc1ccccc1F)Nc1nc2ccccc2[nH]1	6.36
Cc1ccc(C(=O)N2CCC(C(=O)NCc3cccnc3)CC2)cc1	-7.53
O=C1C2C3C=CC(C3)C2C(=O)N1c1n[nH]c(-c2cccnc2)n1 (centres unmarked)	11.1
COc1cc(NC(=O)CSc2nc3cc(C)ccc3cc2C)c(C(=O)O)cc1OC	2.83
COc1cccc(NS(=O)(=O)c2c(C)cc(C)cc2C)c1	-3.47
C=CCc1cccc2cc(C(=O)N(C)C)c(=O)oc12	1.84
COc1ccc(C)cc1N(CC(=O)N1CCCC1)S(=O)(=O)c1ccccc1	-0.0589
Cc1cc2cc3c(cc2nc1SCC(=O)OC(C)C)OCCO3	-5.56
Nn1c(SCC(=O)Nc2nccs2)nnc1-c1cccnc1	0.353
Cc1ccc(CN2CCc3[nH]c(=S)[nH]c(=O)c3C2)cc1	19
CCn1c(CC(=O)Nc2ccc(C)cc2)nnc1SCC(=O)N1CCOCC1	6.97
CCOc1ccc(Cl)cc1S(=O)(=O)NCc1ccccn1	3.15
Cc1ccc2c(c1)C1CC(C)(O2)N(c2cccc(C(=O)NC3CCN(Cc4ccccc4)CC3)c2)C(=O)N1 (centres unmarked)	-3.24
CCN(CC)C(=O)CSc1nc2ccccc2n1CC(=O)N1CCN(c2ccccc2OC)CC1	1.84
COC(=O)C1=C(c2ccc(OC(F)(F)F)cc2)C[C@@H]2CC[C@H]1N2C(=O)NCCOc1ccccc1	-14.4
C/C(CC(=O)Nc1ccc(Cl)c(Cl)c1)=N\NC(=O)C(=O)N1CCCCC1	9.57
